Assay results as given in ChEMBL document CHEMBL4888484, “Replenishing the malaria drug discovery pipeline: Screening and hit evaluation of the MMV Hit Generation Library 1 (HGL1) against asexual blood stage Plasmodium falciparum ,using a nano luciferase reporter read-out” (2022).
Hit rate of the full screen: of about 150,000 compounds, about 540 (0.36%) showed an effect of 50% or more. This is one part of the list.

Each compound was assayed on Plasmodium falciparum (assay: Primary screen in NF54 nanoGlo assay, in single point, at 2uM, 72h; a lower Z score goes with more inhibition). Conditions: timepoint 72 hour.
Assay type: functional, Erythrocyte

Structure (SMILES)	% Inhibition [%]	Z score
CC(C)C[C@H](NC(=O)OC(C)(C)C)C(=O)N(C)Cc1cnccn1	4	-0.55
CC[C@H](C)NC(=O)Cn1c(=O)c2nnc(C(C)C)n2c2ccccc21	-3	0.36
Cc1cc(N2CCC(O)CC2)nc(N2CCC(O)CC2)c1C#N	34	-4.9
COc1ccc([C@H]2CC(=O)Nc3cccc4c3c2cn4Cc2ccccc2)cc1	-4	0.51
O=C(C[C@H]1CCOC2(CCN(C(=O)c3cccc(F)c3)CC2)C1)N1CCCC1	-4	0.69
Cc1ncccc1OC(=O)OC(C)(C)C	-11	1.8
O=C(NC1CCCCC1)c1nnc(Cc2cccc(F)c2)o1	-7	1.26
CCn1nc(C)cc1C(=O)N1CCC[C@H](C(=O)c2cccc(OC)c2)C1	-4	0.4
CCCC1(CO)CCCN1C[C@@H](O)c1ccccc1 (stereo partly drawn)	1	-0.2
CCOc1nc(-c2ccc(C(F)(F)F)cc2)n(-c2ccc(NC(=O)c3cccs3)cc2)n1	-13	1.42
O=C(N[C@H]1CCN(Cc2ccc(F)cc2Cl)C[C@@H]1O)c1cnccn1	-6	0.9
Cc1nc(-c2cccs2)sc1C(=O)N(C)Cc1ccc(F)cc1	-1	0.07
CC(=O)NCCCOc1cccc(C)c1F	-5	0.91
CC1CN(C(=O)Nc2ccc(-c3ncco3)cc2)CC(CO)O1 (stereo not drawn)	-11	1.47
O=C(Cc1cccc2ccccc12)Nc1sc2c(c1C(=O)O)CCCC2	-9	1.23
CN1CCCN(CC(=O)N2CC[C@@](O)(c3ccccc3)[C@H]3CCCC[C@H]32)CC1	-5	0.96
CC(C(=O)Nc1nccs1)N1CCC(C)C2(CCC2)C1 (stereo not drawn)	-1	0.24
COc1ccc(OC)c([C@H](C)Nc2ccc3c(c2)C(=O)NC3)c1	-6	0.79
COc1ccc([C@H](Cc2ccc(F)cc2)NCc2cncs2)cc1	-4	0.49
O=c1ccc(CN2CCN(c3ccccc3)CC2)cn1CC1CC1	-18	1.95
Cc1ccc(NC(=O)Cc2c(C)nc(C)[nH]c2=O)cc1	-4	0.37
N#CCC1(Cn2c(=O)ccn2-c2ccccc2)CC1	3	-0.57

Structure (SMILES)	% Inhibition [%]	Z score
O=C(COc1cccc(Cl)c1)NC1CC2CCC1C2 (stereo not drawn)	-9	1.2
Cc1cc(C)n(C2CN(C3CCN(c4ccc5c(c4)OCO5)CC3)C2)n1	-4	0.57
CC(C)[C@@H](C)CC(=O)N1CCC(O)(C(N)=O)CC1	-3	0.42
Cc1ccnc(N2C[C@H](COc3ccccc3)OC(C)(C)C2)c1C#N	-13	1.57
COCC1CCN(C[C@]2(O)CCCN(Cc3ccccc3F)C2=O)CC1	-6	0.9
CS(=O)(=O)N1C[C@@H]2CCCN2c2cc(C(F)(F)F)ccc21	38	-1.33
CCCN(Cc1c(C)nn(-c2ccccc2)c1Oc1ccc(C)cc1)C[C@H](O)c1ccccc1	-5	0.94
CN1CCCC2(CCN(C(=O)COc3ccccc3)CC2)[C@H]1C(=O)N1CCCC1	-5	1.01
Cc1noc(CS(=O)(=O)Cc2csc(-c3cccs3)n2)n1	-10	0.97
C[C@@H](N)C(=O)N1CCc2cc(-c3ccccc3)ccc21	38	-1.2
Cc1nnc2c(N3CCN(C(=O)CCc4cccc(Cl)c4)CC3)nccn12	-12	1.99
Cc1ccc(N2C(=O)c3ccccc3N(Cc3ccccc3)[C@@H]2c2ccc(OCC#N)cc2)cc1	-9	1.38
CN=C(NCCc1ncc(C)s1)N[C@@H](C)c1ccc(C)o1	1	-0.24
O=C(CN1N=C(c2nc(-c3ccc4c(c3)OCO4)no2)CCC1=O)N1CCN(c2ccccc2)CC1	-7	1.05
CCn1ncc2ccc(NC3CCC4(CC3F)OCCO4)cc21 (stereo not drawn)	-1	0.1
CN(C(=O)CN1CCC(c2nnc3cnccn23)CC1)c1nccs1	-5	0.76
O=C(Nc1ccon1)C1CN(C(=O)COc2ccccc2F)C1	-11	1.48
Cc1oc(-c2ccno2)cc1S(=O)(=O)Nc1ccccc1F	-10	1.16
O=C(c1cccc(S(=O)(=O)N2CCCCC2)c1)N1CCc2ccccc2C1	4	-0.53
O=C(NCc1ccc(Cl)cc1Cl)[C@H]1CCCN(C(=O)c2cccs2)C1	8	-1.53
CC(C)C[C@H](NC(=O)c1cccc(F)c1)C(=O)N(C)C	-6	1.09
Cc1ccnc(NC(=O)c2ccc(Oc3ccc(F)cc3Br)nc2)c1	4	-0.48
